Assay results: the antibiotic and cytotoxicity screens of Wong et al. (2023)
Some of the results follow.

Test system: HSkMC (human skeletal muscle cells)
Assay: cytotoxicity call (relative viability < 0.9)
Conditions: 10 µM

SMILES | cytotoxicity call
C[C@@H]1CCCCO[C@@H](CN(C)Cc2ccncc2)[C@H](C)CN([C@H](C)CO)C(=O)c2cc(NC(=O)NC3CCCCC3)ccc2O1 | inactive
COc1ccc(NC(=O)Nc2cccc3c2O[C@H](CN(C)Cc2ccc(Cl)c(Cl)c2)[C@H](C)CN([C@H](C)CO)C3=O)cc1 | inactive
COc1cccc(NC(=O)N[C@H]2CC[C@@H](CC(=O)N3CCOCC3)O[C@@H]2CO)c1 | inactive
Cc1cnc(Nc2ccc(F)cc2Cl)nc1-c1c[nH]c(C(=O)N[C@H](CO)c2cccc(Cl)c2)c1 | active
Cc1ncc([N+](=O)[O-])n1C | inactive
C[C@@H]1CCCCO[C@@H](CN(C)S(=O)(=O)c2ccc(Cl)cc2)[C@@H](C)CN([C@H](C)CO)C(=O)c2cc(NC(=O)Nc3ccc(C(F)(F)F)cc3)ccc2O1 | inactive
COc1ccc([Si](C)(C)[C@@H]2[C@@H](CCO)O[C@]3(C(=O)N(Cc4ccc(N5C(=O)c6ccccc6Oc6ccccc65)cc4)c4ccccc43)[C@H]2C)cc1 | inactive
O=C(NCCCN1CCOCC1)c1ccc(Cl)cc1 | inactive
COc1ccc(NC(=O)N(C)C[C@@H]2OCCCC[C@@H](C)Oc3ccc(NC(=O)C4CCCCC4)cc3C(=O)N([C@@H](C)CO)C[C@@H]2C)cc1 | inactive
CC1(C)C(=O)C=CC2(C)C1C=CC1(C)C2CCC2(C)C(c3ccoc3)OC(=O)C3OC312 (centres undefined) | active
NC/C=C\C(=O)O | inactive
Cc1ccccc1CCCCN | inactive
CCN1CCN(c2cc3c(cc2F)c(=O)c(C(=O)O)cn3C2CC2)CC1 | inactive
C[C@@H]1CN([C@H](C)CO)C(=O)c2cccc(NC(=O)c3ccc(-c4nccs4)cc3)c2O[C@H]1CN(C)S(=O)(=O)c1cn(C)cn1 | inactive
